Screen size: about 2,200 compounds; fewer than 10 were called active. Some of the results follow. Entries without a call are filed as inconclusive in the source.

This assay has as its target GTPase KRas (Homo sapiens) (UniProt P01116). Kind of assay: Covalent labelling of cysteine mutants by fragments, read by mass spectrometry (AID 2202238). Also on record: protein at 5 µM with 500 µM competing thiol for 1.5 h. As to conditions: KRAS G12D cysteine mutants, disulfide tethering, MALDI-TOF labeling; stronger effect = higher value; H27C mutant labeling; fragment at 500 µM.
Chain of UniProt P01116 (P01116 whole entry, looked up, the tested form may be a part): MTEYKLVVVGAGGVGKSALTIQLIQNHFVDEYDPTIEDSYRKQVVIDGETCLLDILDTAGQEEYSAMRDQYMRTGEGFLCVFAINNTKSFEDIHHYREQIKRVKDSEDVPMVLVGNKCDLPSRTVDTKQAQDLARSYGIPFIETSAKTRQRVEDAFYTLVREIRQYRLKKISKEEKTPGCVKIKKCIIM
The compound `O=C(CCCOc1ccc2c(c1)CCC(=O)N2)NCCS` yielded a percent labeling of 40.8%.

`Cn1cc(C(=O)NCCS)c2c(c1=O)CCCC2` came in with a percent labeling of 38.7%.

The compound `O=C1CC(C(F)(F)F)C(C(=O)NCCS)N1` (stereo unspecified) came in with a percent labeling of 35.5%.

`O=C(CCS)NCc1conc1C1CCC1` registered a percent labeling of 42%.

The compound `O=C(CCS)NCc1ccncc1OCC(F)(F)F` displayed a percent labeling of 35.6%.

As for `COCCC1(c2nc(C)no2)CCN(C(=O)CCS)CC1`, the percent labeling amounted to 38.3%.

The compound `O=C(CCS)NC1(c2ccc(Br)cn2)CCC1` returned a percent labeling of 45.7%.

In turn, `O=C(CCS)NCc1nnc(-c2ccncc2F)s1` registered a percent labeling of 42.3%.

The compound `CCc1occ(C(F)(F)F)c1C(=O)NCCS` yielded a percent labeling of 33.3%.

For the compound `Cc1nc2c(c(C(F)(F)F)n1)CC(C(=O)NCCS)CC2` (stereo unspecified), the percent labeling came out at 40.1%.

`CN(C(=O)CCS)C(Cc1ccc(F)cc1)c1ccn(C)n1` (stereo unspecified) displayed a percent labeling of 47%.

For the compound `CS(=O)(=O)Cc1n[nH]c(CNC(=O)CCS)n1`, the percent labeling is 26.1%.

Consider `O=C(CCS)Nc1cc(F)c(-n2ccnc2)c(F)c1`, for which the percent labeling was determined as 45.7%.

Compound `O=C(NCCS)c1cnn(-c2ccccc2F)c1` displayed a percent labeling of 39.5%.

For `Cc1cc(CNC(=O)CCS)cc(N2CCCC2)n1`, the percent labeling stood at 45%.

`O=C(NCCS)c1cc(Br)n2c1CCC2` displayed a percent labeling of 33.6%.

Compound `Cn1cc(Br)cc1C(=O)NCCS` displayed a percent labeling of 33.4%.

The compound `Cc1ccc(CN(C(=O)CCS)c2ccc3[nH]c(=O)[nH]c3c2)cc1` yielded a percent labeling of 32.3%.

`CN(C)C(=O)COc1ccccc1C(=O)NCCS`: the percent labeling was 32%.

On to `CCn1nccc1CN(CCO)C(=O)CCS`, for which the percent labeling stood at 26.6%.

For `Cc1cccc(Nc2ccccc2C(=O)NCCS)c1C`, the percent labeling came to 24.7%.

In the case of `Cc1csc(-c2ccc(C(=O)NCCS)cc2)n1`, the percent labeling stood at 26.2%.

As for `O=C(CCS)Nc1cccc(CN2C(=O)CNC2=O)c1`, the percent labeling was 49.6%.

Compound `NC(=O)Cc1cc(Br)c(-c2ccc(NC(=O)CCS)cc2)s1` returned a percent labeling of 40%.

The compound `CC(C)C(NC(=O)Cc1ccccc1)C(=O)NCCS` (stereo unspecified) returned a percent labeling of 31%.

As to `O=C(Nc1sc2c(c1C(=O)NCCS)CCC2)c1ccco1`, the percent labeling was 11.4%.

Consider `O=C(CCS)NCC1(O)CCC2(CC1)OCCO2`, for which the percent labeling was found to be 0%.

Compound `O=C(CCS)N1CCn2c(nc3c2CCCC3)C1` had a percent labeling of 39%.

For the compound `O=C(NCCS)c1cc(-n2cccc2)ccc1Cl`, the percent labeling stood at 20.4%.

Compound `O=C(CCS)Nc1ncc(Cc2cccc(Cl)c2)s1` came in with a percent labeling of 37.9%.

The compound `CCc1nn(C)c(CC)c1CC(=O)NCCS` gave a percent labeling of 28.6%.

Regarding `O=C(CCn1c(=O)oc2ccccc21)NCCS`, the percent labeling was 31%.

Regarding `Cn1cc(-c2cncc(C(=O)NCCS)c2)cn1`, the percent labeling amounted to 55.6%.

Regarding `O=C(CCS)N1CCCC(c2ccn[nH]2)C1` (stereo unspecified), the percent labeling was determined as 45.9%.

With `O=C(NCCS)C1(C(F)(F)F)CCN(c2ccccn2)C1` (stereo unspecified), the percent labeling is 33.2%.

As to `Cc1ccc(-c2cc(NC(=O)CCS)n[nH]2)cc1`, the percent labeling amounted to 30.4%.

Take `O=C(CCS)Nc1ccccc1N1CCC(CO)CC1`: the percent labeling turned out to be 36.1%.

Regarding `Cc1ncsc1C(=O)NCCNC(=O)CCS`, the percent labeling is 27.7%.

As to `Cc1cc(Br)cc2cc(C(C(C)C)N(C)C(=O)CCS)oc12` (stereo unspecified), the percent labeling was 30.1%.

Consider `Cn1ccnc1Cn1cccc(NC(=O)CCS)c1=O`, for which the percent labeling turned out to be 38.2%.

Turning to `Cc1cc(C)n(-c2ccc(C(=O)NCCS)cc2F)n1`, the percent labeling is 37.7%.

`O=C(NCCS)c1cnn2cccc(Br)c12` gave a percent labeling of 41.1%.

`O=C(NCCS)c1ccc2c(ccn2Cc2ccccc2)c1` yielded a percent labeling of 26.1%.

Regarding `O=C(CCS)N1CCC(O)(c2cccc3cnccc23)CC1`, the percent labeling was 57%.

Compound `O=C(CCS)N1CCN(c2cc(F)cc(F)c2)CC1` came in with a percent labeling of 31.7%.

In turn, `O=C(CCS)Nc1ccc2[nH]c(=O)sc2c1` yielded a percent labeling of 37.5%.

Consider `COc1cc(C(=O)NCCS)cc2c1OC(C)C2` (stereo unspecified), for which the percent labeling came out at 39.1%.

Regarding `COc1cccc(-c2cc(C(=O)NCCS)[nH]n2)c1`, the percent labeling was found to be 29.5%.

With `O=C(NCCS)c1ccccc1O`, the percent labeling came out at 34.3%.

`COc1ccc(-c2cc(C(=O)NCCS)sc2C)cc1` returned a percent labeling of 35.7%.

As for `Cc1nc(N2CCN(C)CC2)ccc1NC(=O)CCS`, the percent labeling turned out to be 56.3%.

`Cc1c(NC(=O)CCS)cccc1N1CCCCC1` registered a percent labeling of 23.4%.

Compound `O=C(NCCS)c1cn(-c2ccc(Cl)c(Cl)c2)cn1` displayed a percent labeling of 20.2%.

The compound `Cc1cc(C)n(Cc2cccc(C(=O)NCCS)c2)n1` registered a percent labeling of 48.6%.

In turn, `Cc1noc(C2COCCN2C2CN(C(=O)CCS)C2)n1` (stereo unspecified) had a percent labeling of 36.6%.

`CCOC(=O)c1sc(NC(=O)CCS)cc1C1CC1` displayed a percent labeling of 37.1%.

Take `O=C(NCCS)C1C2Cc3ccc(Br)cc3C21` (stereo unspecified): the percent labeling came out at 21.8%.

`COC1CC2(CCC(C(=O)NCCS)CC2)C1` (stereo unspecified) registered a percent labeling of 33.1%.

`O=C(NCCS)c1cnn(-c2cncc3nnnn23)c1` came in with a percent labeling of 16.8%.

In turn, `Cc1nnc(SCC2CCCN2C(=O)CCS)s1` (stereo unspecified) showed a percent labeling of 40.1%.

With `Cn1nc(CNC(=O)CCS)cc1C(N)=O`, the percent labeling was 33.4%.

In turn, `CC(C)(C)OCC(=O)NC(C)(C)C(=O)NCCS` had a percent labeling of 28.6%.

Compound `Cn1nc(CCNC(=O)CCS)nc1-c1ccccc1` registered a percent labeling of 33.3%.

`O=C(CC1(c2ccc(C(F)(F)F)cc2)CC1)NCCS` displayed a percent labeling of 27.3%.

As for `O=C(CCS)N1CC(c2cc3n(n2)CCCC3)C1`, the percent labeling came to 36.1%.

`CN1CCCN(C(=O)CCS)c2ccccc21` gave a percent labeling of 22.7%.

The compound `CN1CCC(c2ccccc2)CC1C(=O)NCCS` (stereo unspecified) showed a percent labeling of 49%.

For the compound `O=C(CCS)N(Cc1ccc(Cl)cc1)c1ccccc1`, the percent labeling came to 33%.

`COc1ccc2c(c1)C1(CC1)CN(C(=O)CCS)C2` returned a percent labeling of 25.1%.

`COCc1ccc(C(=O)NCCS)cc1OC` showed a percent labeling of 32.9%.

With `O=C(NCCS)c1c[nH]c(=O)cc1C(F)(F)F`, the percent labeling worked out at 27.8%.
